# Measured values reported in PubChem BioAssay AID686979 (National Center for Advancing Translational Sciences (NCATS), 2013).
# Several values for one entry are separate records, joined by “and”; a condition that tells them apart may be missing. Equal values may be shown once. Hit rate of the full screen: of about 420,000 compounds, about 50,000 (12%) were called active. Inconclusive means that the source gave no clear call. Such entries were picked first, then a sample of the others. The call rests on the fitted dose curve; in most records, active means well fitted inhibition curve with a large enough effect; inconclusive means small, poorly fitted or top-dose-only effect; inactive means flat fitted curve, though single readings scatter. Potencies of inconclusive entries are left out as doubtful fits.
# Experiment: qHTS for Inhibitors of human tyrosyl-DNA phosphodiesterase 1 (TDP1): qHTS in cells in presence of CPT; further: nearly all actives have a fitted effect of over 55% in size
# Settings: chicken DT40 Tdp1-/-;hTDP1 cells + 20 nM CPT, ATP luminescence, 48 h; activity change, negative = growth inhibition: at 46.2 µM (top of the series) unless noted
# How it was run: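 Chicken DT40 Tdp1-/- cells complemented with human TDP1, 400 cells/well, exposed to compounds plus 20 nM camptothecin for at least 48 h at 37 C; viability read as ATP content by CellTiter-Glo luminescence.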
# On the % scale 0 is the no-effect control and ±100 the full control effect; potency means the concentration at half of the fitted maximal effect; tags describe the fitted curve by direction and shape.
SMILES,Potency,"activity change, negative = growth inhibition"
COC(=O)c1c(C)n(Cc2ccco2)c2ccc(O)cc12,"inconclusive [inhibitor, single point]",–
COc1ccc(CN2Cc3cnnn3-c3ccccc3C2c2ccccc2)cc1 (stereo unspecified),active: 16.4 µM,–
CC(=O)NCC1=C(c2cccc3ccccc23)C[C@@H]2CC[C@H]1N2Cc1ccco1,"inconclusive [inhibitor, single point]",–
c1ccc(CC2CCCCN2)cc1 (stereo unspecified),–,inactive: 12.3%
COC(=O)C1=C(c2ccc(F)cc2OCc2ccccc2)C[C@@H]2CC[C@H]1N2C(=O)NCCOc1ccccc1,"inconclusive [inhibitor, single point]",–
CCN(CC)CCSc1nc2ccccc2c(=O)n1-c1ccc(Cl)cc1,active: 7.31 µM,–
CC(=O)[C@H]1CC[C@H]2[C@@H]3CC[C@H]4C[C@H](O)CC[C@]4(C)[C@H]3C(=O)C[C@]12C,"inconclusive [inhibitor, single point]",inconclusive: -38.3% [inhibitor]
Fc1ccccc1CNCCc1c[nH]c2ccccc12,active: 16.4 µM,–
O=C(c1ccc(Cl)cc1)C12CN3CN(CN(C3)C1)C2,"inconclusive [inhibitor, single point]",–
Cc1ccccc1N1C(=O)NC(=O)/C(=C\c2cc(Br)c(N3CCOCC3)o2)C1=O,active: 4.11 µM,–
O=C(Nc1ccc2ccccc2c1)c1nn(C23CC4CC(CC(C4)C2)C3)cc1Br,active: 18.4 µM,–
CC(=NCC1CCCO1)c1c(O)n(Cc2ccccc2)c(=O)[nH]c1=O (stereo unspecified),–,inactive: -1.44%
O=Cc1cn(Cc2ccccc2F)c2ccccc12,active: 20.6 µM,–
O=C1CN=C(c2ccccc2)c2cc(Br)ccc2N1,–,inactive: 11.4%
CN(C)CCN(CC1CCCN(Cc2ccccc2F)C1)C(=O)Cc1ccc(F)c(F)c1 (stereo unspecified),"inconclusive [inhibitor, single point]",–
CC1=CC2OC3CC4OC(=O)C=CC=CC(C(C)O)OCC(O)C(C)CC(=O)OCC2(CC1O)C4(C)C31CO1 (stereo unspecified),active: 0.013 µM,–
COc1ccc(C(c2nnnn2-c2ccc3c(c2)OCCO3)N2CCC(n3c(=O)[nH]c4ccccc43)CC2)cc1 (stereo unspecified),"inconclusive [inhibitor, single point]",–
COC(=O)C1=C(c2cccc3c2S(=O)(=O)c2ccccc2-3)C[C@@H]2CC[C@H]1N2C(=O)N1CCc2cc(OC)c(OC)cc2C1,active: 20.6 µM,–
COc1cccc(NC(=O)Cn2cc(C(=O)c3ccccc3)c3ccccc32)c1,"inconclusive [inhibitor, single point]",–
COc1ccc(-c2ccc3c(c2)CN(CC(C)C)Cc2cnnn2-3)cc1,active: 16.4 µM,–
COC(=O)C1=C(c2ccc3ccccc3c2)C[C@@H]2CC[C@H]1N2C(=O)NCCCOC(C)C,"inconclusive [inhibitor, single point]",–
CCCNC(=O)c1cnn2c(C)c(Cc3c(C)cc(C)cc3C)c(C)nc12,active: 3.66 µM,–
CCCOc1ccc(C2SCC(=O)Nc3c2c(C)nn3-c2cccc(C)c2)cc1OC (stereo unspecified),active: 16.4 µM,–
Cc1ccccc1CC(=O)N(CCN(C)C)CC1CCCN(Cc2ccccc2F)C1 (stereo unspecified),"inconclusive [inhibitor, single point]",–

SMILES,Potency,"activity change, negative = growth inhibition"
COC(=O)C1=C(c2ccccc2)C[C@@H]2CC[C@H]1N2C(=O)NC1CC1,–,inactive: -12.4%
O=C(OCCN1CCOCC1)C1(c2ccccc2)CCCC1,–,inactive: 7.49%
COc1ccc(Nc2nc(N3CCN(C)CC3)nc3ccccc23)c(OC)c1,"inconclusive [inhibitor, single point]",–
CCc1ccc(N2C(=O)NC(=O)/C(=C/c3cccn3CCOc3ccc(C(C)CC)cc3)C2=O)cc1 (stereo unspecified),"inconclusive [inhibitor, single point]",–
CC(C)N1CCN(c2ccc(O)cc2)CC1,–,inactive: 5.41%
C[C@]12CCC(=O)C=C1CCC1C2CC[C@@]2(C)C1CC[C@]2(C)O (stereo partly specified),"inconclusive [inhibitor, single point]",–
CN1CCN(c2ccc3c(c2)S(=O)(=O)c2ccccc2C3=O)CC1,–,inconclusive: -31.8% [inhibitor]
O=C(c1cc2cc(F)ccc2[nH]1)N1CCC2(CC1)OCCO2,"inconclusive [inhibitor, single point]",–
Cc1cc(OCC(=O)NCc2ccncc2)c2c3c(c(=O)oc2c1)CCCC3,"inconclusive [inhibitor, single point]",–
COCCNC(=O)CN1C(=O)C(C)N=C(c2ccccc2)c2cc(Cl)ccc21 (stereo unspecified),–,inactive: 0.639%
Oc1cc(O)cc(/C=C/c2ccc(O)cc2O)c1,"inconclusive [inhibitor, partial curve]",–
Cc1nc2n(c(=O)c1CCN1CCC(c3noc4cc(F)ccc34)CC1)CCCC2,"inconclusive [inhibitor, single point]",–
CC1CC2CC(=O)C3CCCN4CCCC2[C@]34C1 (stereo partly specified),–,inactive: 6.26%
C=C1C[C@@H]2[C@H](CC[C@]3(C)C(=O)CC[C@@H]23)[C@@]2(C)C=CC(=O)C=C12,active: 16.4 µM,–
Cn1cc(C(=O)N2CCOCC2)c2ccccc21,–,inactive: -2.85%
Cc1cc(/C=C/c2ccnc3ccccc23)ccc1N(CCCl)CCCl,"inconclusive [inhibitor, full curve, poor fit]",–
CCC1CN1P(=O)(Oc1ccc(Cl)cc1)N1CC1CC (stereo unspecified),"inconclusive [inhibitor, single point]",–
O=C(N=Nc1c(O)[nH]c(=O)[nH]c1=O)C1COc2ccccc2O1 (stereo unspecified),"inconclusive [inhibitor, single point]",–
CCOC(=O)[C@@H]1[C@H]2COc3ccc(Br)cc3[C@@H]2N2C(=O)N(c3cccc(C)c3)C(=O)[C@]12C,–,inconclusive: -32.4% [inhibitor]
COc1cc(CN2C(=O)NC(=O)C3(Cc4cc(C)ccc4N(C)C3)C2=O)cc(OC)c1 (stereo unspecified),"inconclusive [inhibitor, full curve, poor fit]",–
ClCCN(CCCl)c1ccc(C=Nc2ccc(/C=C/c3ccnc4ccccc34)cc2)cc1,active: 10 µM,–
COc1c(O)c2c(=O)cc(OC)c3c4c(OC)cc(=O)c5c(O)c(OC)c(C[C@@H](C)OC(=O)c6ccccc6)c(c(c1C[C@@H](C)OC(=O)Oc1ccc(O)cc1)c23)c54,"inconclusive [inhibitor, single point]",–
O=C1C2C3CCC(C3)C2C(=O)N1c1ccc(OS(=O)(=O)c2ccccc2)cc1 (stereo unspecified),"inconclusive [inhibitor, single point]",–
O=c1[nH]c2ccccc2n1C1CCN(C(CCc2ccccc2)c2nnnn2C2CCCCC2)CC1 (stereo unspecified),active: 20.6 µM,–

SMILES,Potency,"activity change, negative = growth inhibition"
Cc1cccc(N=C2c3cc([N+](=O)[O-])ccc3-c3c2cc([N+](=O)[O-])cc3[N+](=O)[O-])c1,active: 8.2 µM,–
Oc1ccc(Cl)cc1Cc1cc(Cl)ccc1O,active: 13.3 µM and active: 14.6 µM,–
CCOc1ccc(-n2c(CC)nc3ccccc3c2=O)cc1,–,inactive: -28.4%
CCCCC/C=C\C/C=C\C/C=C\C/C=C\CCCC(=O)NCC(=O)O,–,inactive: 1.95% [at 4.12 µM]
O=C(Nc1cccc(F)c1)N1CC2(CCN(C(=O)Oc3ccccc3)CC2)C1,–,inactive: 8.79%
Cc1ccc(-n2nc3ccc(NC(=O)COc4ccccc4C)cc3n2)cc1,"inconclusive [inhibitor, single point]",–
COC(=O)C1=C(c2cccc3c2S(=O)(=O)c2ccccc2-3)C[C@@H]2CC[C@H]1N2C(=O)N1CCOCC1,active: 23.1 µM,–
COc1ccc(-n2c(/C=C\c3ccccc3F)nc3ccccc3c2=O)cc1OC,active: 23.1 µM,–
Cc1cccc(N2C(=O)CSC23C(=O)N(CC(=O)Nc2cccc(Cl)c2)c2ccccc23)c1 (stereo unspecified),active: 23.1 µM,–
COC(=O)C1=C(c2cc3ccccc3o2)C[C@@H]2CC[C@H]1N2C(=O)N1CCC(O)CC1,"inconclusive [inhibitor, single point]",–
O=C(NCc1cccnc1)c1ccc(-c2ccc(F)c(F)c2)c2ccoc12,active: 5.8 µM,–
CO[C@H]1C=C2CCN(C)[C@H]2C2c3cc4c(cc3C(=O)O[C@@H]21)OCO4 (stereo partly specified),–,inactive: -14.8%
CCN(CC)S(=O)(=O)c1ccc(C)c(NCC(=O)Nc2ccc(C#N)c(Cl)c2)c1,active: 16.4 µM,–
Cc1ccc(C(O)P(=O)(OCCC(C)C)c2ccc(N(C)C)cc2)cc1 (stereo unspecified),"inconclusive [inhibitor, single point]",–
NC(=O)c1ncn([C@@H]2O[C@H](CO)[C@@H](O)[C@H]2O)n1,active: 1.16 µM and active: 1.46 µM,–
CC(C)COP(=O)(c1ccc(N(C)C)cc1)C(Nc1ccccc1)c1cccnc1 (stereo unspecified),"inconclusive [inhibitor, partial curve]",–
CC(C)=CCC/C(C)=C/CNC(=O)C[C@H]1C[C@H](C(=O)N(C(C)C)C(C)C)[C@@]2(C)c3[nH]c4ccc(Cl)cc4c3CCN2C1=O,"inconclusive [inhibitor, single point]",–
O=c1c2ccccc2nc(-c2ccco2)n1-c1ccccc1,"inconclusive [inhibitor, partial curve]",–
COc1ccc2c(c1)C(c1ccc(N(CCCl)CCCl)cc1)=NCC2,active: 16.4 µM,–
COc1ccc(-n2c(/C=C/c3cccc(F)c3)nc3ccccc3c2=O)c(OC)c1,active: 13 µM,–
COc1ccccc1CNC(=O)CCC(=O)N1C[C@H]2C[C@@H](C1)c1cccc(=O)n1C2,–,inactive: 3.93%
COc1ccc(-c2ccc3c(c2)CN(C(=O)NC2CCCCC2)Cc2cnnn2-3)cc1,"inconclusive [inhibitor, single point]",–
